# Measurements taken from the supplement of paper PMC8728848.
# The other results are listed elsewhere or left out.
# B1: DrGRIFIN (Danio rerio), Q6DGJ1 (protein)
# chain: MTLRFEASCPDGLCPGWSVILKGETPPEASKFEINFLCDRDDRVAFHFNPRFTESDIICNSYMANRWGQEERCNHFPLGVEEPFQIEIYSDNDHFHVYIDKAKVMQYKHRVEDLKTITKLQVVNDVKISSLEITKKLFY
# What was measured:
# Test in all cases: glycan array binding signal (z-score within array); higher = stronger binding
# Settings in all cases: glycan notation: IUPAC condensed, linker removed
# Fuc(a1-2)Gal = molecular target: Fuc(a1-2)Gal
# Procedure, shortened: (§1)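 From the Consortium for Functional Glycomics database, 3228 arrays were curated, keeping only those whose protein sequence was available. Binding is given as a within-array Z-score averaged across arrays sharing a protein sequence and across linkers. Negative Z-scores can be read as non-binding.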
# Fuc(a1-2)Gal(b1-3)GalNAc = molecular target: Fuc(a1-2)Gal(b1-3)GalNAc
# Procedure, shortened: as §1
# [1] = molecular target: Fuc(a1-2)Gal(b1-3)GalNAc(a1-3)[Fuc(a1-2)]Gal(b1-4)Glc
# Procedure, shortened: as §1
# [2] = molecular target: Fuc(a1-2)Gal(b1-3)GalNAc(a1-3)[Fuc(a1-2)]Gal(b1-4)GlcNAc
# Procedure, shortened: as §1
# [3] = molecular target: Fuc(a1-2)Gal(b1-3)GalNAc(b1-3)Gal
# Procedure, shortened: as §1
# [4] = molecular target: Fuc(a1-2)Gal(b1-3)GalNAc(b1-3)Gal(a1-4)Gal(b1-4)Glc
# Procedure, shortened: as §1
# [5] = molecular target: Fuc(a1-2)Gal(b1-3)GalNAc(b1-4)[Neu5Ac(a2-3)]Gal(b1-4)Glc
# Procedure, shortened: as §1
# Fuc(a1-2)Gal(b1-3)GlcNAc = molecular target: Fuc(a1-2)Gal(b1-3)GlcNAc
# Procedure, shortened: as §1
# [6] = molecular target: Fuc(a1-2)Gal(b1-3)GlcNAc(b1-2)Man(a1-3)[Fuc(a1-2)Gal(b1-3)GlcNAc(b1-2)Man(a1-6)]Man(b1-4)GlcNAc(b1-4)GlcNAc
# Procedure, shortened: as §1
# [7] = molecular target: Fuc(a1-2)Gal(b1-3)GlcNAc(b1-2)Man(a1-3)[Fuc(a1-2)Gal(b1-3)GlcNAc(b1-2)Man(a1-6)]Man(b1-4)GlcNAc(b1-4)[Fuc(a1-6)]GlcNAc
# Procedure, shortened: as §1
# [8] = molecular target: Fuc(a1-2)Gal(b1-3)GlcNAc(b1-3)Gal(b1-4)Glc
# Procedure, shortened: as §1
# [9] = molecular target: Fuc(a1-2)Gal(b1-3)GlcNAc(b1-3)GalNAc
# Procedure, shortened: as §1
# [10] = molecular target: Fuc(a1-2)Gal(b1-3)GlcNAc(b1-3)[Fuc(a1-2)Gal(b1-3)GlcNAc(b1-6)]GalNAc
# Procedure, shortened: as §1
# [11] = molecular target: Fuc(a1-2)Gal(b1-3)GlcNAc(b1-3)[Gal(b1-4)GlcNAc(b1-6)]Gal(b1-4)Glc
# Procedure, shortened: as §1
# [12] = molecular target: Fuc(a1-2)Gal(b1-3)GlcNAc(b1-3)[Neu5Ac(a2-6)Gal(b1-4)GlcNAc(b1-6)]Gal(b1-4)Glc
# Procedure, shortened: as §1
# [13] = molecular target: Fuc(a1-2)Gal(b1-3)GlcNAc6S
# Procedure, shortened: as §1
# [14] = molecular target: Fuc(a1-2)Gal(b1-3)[Fuc(a1-4)]GlcNAc
# Procedure, shortened: as §1
# [15] = molecular target: Fuc(a1-2)Gal(b1-3)[Fuc(a1-4)]GlcNAc(b1-2)Man(a1-3)[Fuc(a1-2)Gal(b1-3)[Fuc(a1-4)]GlcNAc(b1-2)Man(a1-3)]Man(b1-4)GlcNAc(b1-4)GlcNAc
# Procedure, shortened: as §1
# [16] = molecular target: Fuc(a1-2)Gal(b1-3)[Fuc(a1-4)]GlcNAc(b1-2)Man(a1-3)[Fuc(a1-2)Gal(b1-3)[Fuc(a1-4)]GlcNAc(b1-2)Man(a1-6)]Man(b1-4)GlcNAc(b1-4)[Fuc(a1-6)]GlcNAc(b1-4)[Fuc(a1-6)]GlcNAc
# Procedure, shortened: as §1
# [17] = molecular target: Fuc(a1-2)Gal(b1-3)[Fuc(a1-4)]GlcNAc(b1-3)[Fuc(a1-3)[Gal(b1-4)]GlcNAc(b1-6)]Gal(b1-4)Glc
# Procedure, shortened: as §1
# [18] = molecular target: Fuc(a1-2)Gal(b1-3)[Fuc(a1-4)]GlcNAc(b1-3)[Gal(b1-4)GlcNAc(b1-6)]Gal(b1-4)Glc
# Procedure, shortened: as §1
# Fuc(a1-2)Gal(b1-4)Glc = molecular target: Fuc(a1-2)Gal(b1-4)Glc
# Procedure, shortened: as §1
# Fuc(a1-2)Gal(b1-4)Glc6S = molecular target: Fuc(a1-2)Gal(b1-4)Glc6S
# Procedure, shortened: as §1
# Fuc(a1-2)Gal(b1-4)GlcNAc = molecular target: Fuc(a1-2)Gal(b1-4)GlcNAc
# Procedure, shortened: as §1
# [19] = molecular target: Fuc(a1-2)Gal(b1-4)GlcNAc(b1-2)Man
# Procedure, shortened: as §1
# [20] = molecular target: Fuc(a1-2)Gal(b1-4)GlcNAc(b1-2)Man(a1-3)[Fuc(a1-2)Gal(b1-4)GlcNAc(b1-2)Man(a1-6)]Man(b1-4)GlcNAc(b1-4)GlcNAc
# Procedure, shortened: as §1
# [21] = molecular target: Fuc(a1-2)Gal(b1-4)GlcNAc(b1-2)Man(a1-3)[Fuc(a1-2)Gal(b1-4)GlcNAc(b1-2)Man(a1-6)]Man(b1-4)GlcNAc(b1-4)[Fuc(a1-6)]GlcNAc
# Procedure, shortened: as §1
# [22] = molecular target: Fuc(a1-2)Gal(b1-4)GlcNAc(b1-2)[Fuc(a1-2)Gal(b1-4)GlcNAc(b1-4)]Man(a1-3)[Fuc(a1-2)Gal(b1-4)GlcNAc(b1-2)Man(a1-6)]Man(b1-4)GlcNAc(b1-4)GlcNAc
# Procedure, shortened: as §1
# [23] = molecular target: Fuc(a1-2)Gal(b1-4)GlcNAc(b1-3)Gal(b1-4)GlcNAc
# Procedure, shortened: as §1
# [24] = molecular target: Fuc(a1-2)Gal(b1-4)GlcNAc(b1-3)Gal(b1-4)GlcNAc(b1-2)Man(a1-3)[Fuc(a1-2)Gal(b1-4)GlcNAc(b1-3)Gal(b1-4)GlcNAc(b1-2)Man(a1-6)]Man(b1-4)GlcNAc(b1-4)GlcNAc
# Procedure, shortened: as §1
# [25] = molecular target: Fuc(a1-2)Gal(b1-4)GlcNAc(b1-3)Gal(b1-4)GlcNAc(b1-3)Gal(b1-4)GlcNAc
# Procedure, shortened: as §1
# [26] = molecular target: Fuc(a1-2)Gal(b1-4)GlcNAc(b1-3)GalNAc
# Procedure, shortened: as §1
# [27] = molecular target: Fuc(a1-2)Gal(b1-4)GlcNAc(b1-3)[Fuc(a1-2)Gal(b1-4)GlcNAc(b1-6)]GalNAc
# Procedure, shortened: as §1
# [28] = molecular target: Fuc(a1-2)Gal(b1-4)GlcNAc(b1-3)[Fuc(a1-3)[Gal(b1-4)]GlcNAc(b1-6)]Gal(b1-4)Glc
# Procedure, shortened: as §1
# [29] = molecular target: Fuc(a1-2)Gal(b1-4)GlcNAc(b1-6)GalNAc
# Procedure, shortened: as §1
# [30] = molecular target: Fuc(a1-2)Gal(b1-4)GlcNAc6S
# Procedure, shortened: as §1
# [31] = molecular target: Fuc(a1-2)Gal(b1-4)[Fuc(a1-3)]GlcNAc
# Procedure, shortened: as §1
# [32] = molecular target: Fuc(a1-2)Gal(b1-4)[Fuc(a1-3)]GlcNAc(b1-2)Man(a1-3)[Fuc(a1-2)Gal(b1-4)[Fuc(a1-3)]GlcNAc(b1-2)Man(a1-6)]Man(b1-4)GlcNAc(b1-4)[Fuc(a1-6)]GlcNAc
# Procedure, shortened: as §1
# [33] = molecular target: Fuc(a1-2)Gal(b1-4)[Fuc(a1-3)]GlcNAc(b1-2)[Fuc(a1-2)Gal(b1-4)[Fuc(a1-3)]GlcNAc(b1-4)]Man(a1-3)[Fuc(a1-2)Gal(b1-4)[Fuc(a1-3)]GlcNAc(b1-2)Man(a1-6)]Man(b1-4)GlcNAc(b1-4)GlcNAc
# Procedure, shortened: as §1
# [34] = molecular target: Fuc(a1-2)Gal(b1-4)[Fuc(a1-3)]GlcNAc(b1-3)Gal(b1-4)[Fuc(a1-3)]GlcNAc
# Procedure, shortened: as §1
# [35] = molecular target: Fuc(a1-2)Gal(b1-4)[Fuc(a1-3)]GlcNAc(b1-3)Gal(b1-4)[Fuc(a1-3)]GlcNAc(b1-3)Gal(b1-4)[Fuc(a1-3)]GlcNAc
# Procedure, shortened: as §1
# [36] = molecular target: Fuc(a1-2)Gal(b1-4)[Fuc(a1-3)]GlcNAc(b1-3)GalNAc
# Procedure, shortened: as §1
# [37] = molecular target: Fuc(a1-2)Gal(b1-4)[Fuc(a1-3)]GlcNAc(b1-3)[Neu5Ac(a2-6)Gal(b1-4)GlcNAc(b1-6)]Gal(b1-4)Glc
# Procedure, shortened: as §1
# [38] = molecular target: Fuc(a1-2)Gal3S(b1-4)GlcNAc
# Procedure, shortened: as §1
# [39] = molecular target: Fuc(a1-2)Gal6S(b1-3)GlcNAc
# Procedure, shortened: as §1
binder,measurement,setting,value
B1,glycan array binding signal (z-score),Fuc(a1-2)Gal,-0.212
same,glycan array binding signal (z-score),Fuc(a1-2)Gal(b1-3)GalNAc,-0.18
same,glycan array binding signal (z-score),[1],-0.088
same,glycan array binding signal (z-score),[2],-0.21
same,glycan array binding signal (z-score),[3],-0.216
same,glycan array binding signal (z-score),[4],-0.099
same,glycan array binding signal (z-score),[5],-0.2
same,glycan array binding signal (z-score),Fuc(a1-2)Gal(b1-3)GlcNAc,-0.16
same,glycan array binding signal (z-score),[6],-0.16
same,glycan array binding signal (z-score),[7],-0.196
same,glycan array binding signal (z-score),[8],-0.11
same,glycan array binding signal (z-score),[9],-0.134
same,glycan array binding signal (z-score),[10],0.002
same,glycan array binding signal (z-score),[11],-0.217
same,glycan array binding signal (z-score),[12],-0.195
same,glycan array binding signal (z-score),[13],-0.201
same,glycan array binding signal (z-score),[14],-0.218
same,glycan array binding signal (z-score),[15],-0.166
same,glycan array binding signal (z-score),[16],-0.165
same,glycan array binding signal (z-score),[17],-0.188
same,glycan array binding signal (z-score),[18],-0.128
same,glycan array binding signal (z-score),Fuc(a1-2)Gal(b1-4)Glc,-0.152
same,glycan array binding signal (z-score),Fuc(a1-2)Gal(b1-4)Glc6S,-0.101
same,glycan array binding signal (z-score),Fuc(a1-2)Gal(b1-4)GlcNAc,-0.121
same,glycan array binding signal (z-score),[19],-0.193
same,glycan array binding signal (z-score),[20],-0.103
same,glycan array binding signal (z-score),[21],-0.094
same,glycan array binding signal (z-score),[22],-0.158
same,glycan array binding signal (z-score),[23],-0.145
same,glycan array binding signal (z-score),[24],-0.016
same,glycan array binding signal (z-score),[25],-0.11
same,glycan array binding signal (z-score),[26],-0.167
same,glycan array binding signal (z-score),[27],-0.134
same,glycan array binding signal (z-score),[28],-0.143
same,glycan array binding signal (z-score),[29],-0.198
same,glycan array binding signal (z-score),[30],-0.16
same,glycan array binding signal (z-score),[31],-0.168
same,glycan array binding signal (z-score),[32],0.046
same,glycan array binding signal (z-score),[33],-0.182
same,glycan array binding signal (z-score),[34],-0.116
same,glycan array binding signal (z-score),[35],-0.183
same,glycan array binding signal (z-score),[36],-0.178
same,glycan array binding signal (z-score),[37],-0.166
same,glycan array binding signal (z-score),[38],-0.171
same,glycan array binding signal (z-score),[39],-0.141
